The whole screen tested about 48,000 compounds, of which about 450 (0.94%) were called active. Not shown: some 19% with an inconclusive outcome. Calls follow the shape of the dose curve; as a rule, active = well fitted inhibition curve with a large enough effect; inconclusive = small, poorly fitted or top-dose-only effect; inactive = no such curve, though single readings can be large or run the other way. This is one part of the list.
Test: Primary qHTS for Identification of Small Molecule Inhibitors of Huntingtin Promoter Activity; also: nearly all actives have a fitted effect of over 50% in size
Settings: HEK293 HTT promoter firefly luciferase reporter (activity 0% = vehicle and -100% = no light), 24 h; series mostly up to 57.5 µM; activity change, negative = inhibition: at the top concentration
Procedure, shortened: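 Firefly luciferase signal from promoter-reporter HEK293 cells was scaled between vehicle (0%) and zero RLU (-100%). Compounds were tested at final concentrations of up to 57.5 uM over 24 h at 37 degrees C. PTC124 at 50 uM final served as control inhibitor.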

Activity change, negative = inhibition, inactive:
Cc1cc(C)c(Cn2c(=O)n(CCC(=O)NCCc3ccccc3)c(=O)c3ccccc32)c(C)c1 -5.58%, CN1CCN(C(CNC(=O)c2ccc(F)cc2)c2ccc3c(c2)OCO3)CC1 (configuration not stated) -2.19%, COc1ccc(OC)c(CCNC(=O)c2c(C)oc3ncn(CC(C)C)c(=O)c23)c1 -18%, CCOCCCn1c(SCC(=O)Nc2ccccc2CC)nc2ccccc2c1=O -21.4%, CCOC(=O)Cn1c(=O)oc2cc(S(=O)(=O)N3CCN(c4cccc(Cl)c4)CC3)ccc21 -13.6%, O=C(O)c1sc(Nc2ccccc2)nc1-c1ccccc1 -6.08%, Nc1ccc(C(=O)N2CC3CC(CN(Cc4ccccc4)C3)C2)cc1 0.139%, Cc1ccc(NC(=O)c2cccc3c(=O)c4c([nH]c23)CCCC4)c(C)c1 -24.8%, CCN(CC)c1ccc(C(=O)N2CCc3c([nH]c4ccccc34)C2c2ccc(F)cc2)cc1 (configuration not stated) -11.6%, CCOC(=O)c1sc2ccccc2c1S(=O)(=O)Nc1ccc(OC)c(Cl)c1 0%, Cc1ccc(NC(=O)Nc2nnc(SCC(=O)N(C(C)C)C(C)C)s2)cc1 -33.6%, CCCn1c(=N)c(C(=O)NCC2CCCO2)cc2c(=O)n3cc(C)ccc3nc21 (configuration not stated) -1.44%, Cc1cccc(-c2nc(SCc3cc(=O)c4c(C)cc(C)cc4[nH]3)n[nH]2)c1 -24.7%, COCCN(CCOC)S(=O)(=O)c1ccc(C(=O)Nc2sc3c(c2C(N)=O)CCCC3)cc1 -20.4%, O=C(Cn1ncc2c3ccccc3n(Cc3ccccc3)c2c1=O)NCCc1ccc(Cl)cc1 -0.957%, COc1cccc(NC(=O)Cn2nc(N3CCN(c4ccccc4)CC3)ccc2=O)c1 1.59%, Cc1ccc(Cl)cc1-n1ncc2c(NCCc3ccccc3)ncnc21 -14.2%, O=C(Cn1nc2c(cc1=O)CCCC2)NCc1ccc(Cl)cc1 -24%, Cc1cccc(CSc2cn(CC(=O)N3CCOCC3)c3ccccc23)c1 64.2%, COc1ccc(C(=O)c2ccccc2O)c(O)c1 18.9%, CCN(C(=O)CN1C(=O)c2ccccc2Sc2ccc(C(=O)OC)cc21)c1cccc(C)c1 1.99%, CCC(=O)N1CCc2cc(S(=O)(=O)NC(Cc3ccccc3)C(=O)NCc3ccccc3)ccc21 (configuration not stated) -20.9%, Cc1ccc(OCC(=O)Nc2ccc(OCc3cc(=O)n4ccsc4n3)cc2)cc1C 27.4%, CCCCNc1nc2c(S(=O)(=O)c3ccc(Br)cc3)nnn2c2ccsc12 2.29%, Cc1ccc(NC(=O)Cn2c(=O)n(Cc3nc(-c4ccccc4)no3)c(=O)c3ccccc32)c(C)c1 -11.7%, Cc1ccc(Nc2c(-c3ccccn3)nc3ccc(Br)cn23)cc1 -10.4%, Cc1ccc(C(=O)N(Cc2ccc(N(C)C)cc2)CC2CCCO2)cc1 (configuration not stated) -0.897%, Cc1nn(C(C)C(=O)NCc2ccc(OC(C)C)cc2)c(=O)c2c1sc1ccccc12 (configuration not stated) -35.3%, Cc1ccc2ccc3cc(C(=O)N4CCN(c5ccccc5F)CC4)nc3c2[nH]1 -26.6%, CC(C)(C)NCC(O)COc1cccc2c1C[C@H](O)[C@H](O)C2 (some centres not stated) 10.8%, CCCCNC(=O)CCC(=O)NNc1nc2ccccc2c2nc(C)nn12 -4.89%, COc1ccccc1NC(=O)c1c(-c2ccc(C)cc2)nnc2ccccc12 10.1%, COc1ccc(N2CCN(C(=O)Nc3cn(CC(C)C)c(=O)c4ccccc34)CC2)cc1 1.99%, O=C(Nc1cc(Cl)ccc1Cl)c1ccc2c(c1)N(Cc1cccc(Cl)c1)C(=O)c1ccccc1S2=O (configuration not stated) -18.7%, O=C(NCc1cccs1)c1ccc2c(c1)sc1nc(-c3ccc(F)cc3)cn12 -9.36%, Cc1nn(-c2ccccc2)c(OC(=O)c2ccccc2)c1S(=O)(=O)c1ccccc1 -8.46%, Cc1ccc2oc(C(=O)Nc3c(C(=O)Nc4cccc(Cl)c4)oc4ccccc34)cc(=O)c2c1 -10.5% [at 11.5 µM], Cc1ccccc1Cn1ccn(-c2ccc(F)c(F)c2)c(=O)c1=O -3.22%, CCOC(=O)CSc1nc2ccccc2c(=O)n1-c1ccc(C(=O)NCCOC)cc1 6.77%, O=C(Nc1ccccc1C(F)(F)F)N1CCOc2ccc(Cl)cc21 -8.52%, Cc1ccc(N2C(=O)CS(=O)(=O)C23C(=O)Nc2ccccc23)cc1C (configuration not stated) -10.2%, CCOC(=O)N1CCC(NC(=O)c2ccc3c(c2)N(Cc2ccccc2C)C(=O)c2ccccc2S3=O)CC1 (configuration not stated) -21.1%, CN(Cc1nc(-c2ccc(Cl)cc2)no1)S(=O)(=O)c1ccccc1 -1.61%, COc1ccccc1N1CCN(C(=O)c2cc3c(=O)n(Cc4cccs4)ccc3nc2C)CC1 -28.8%, CCOC(=O)N1CCc2c(sc3c2c(=O)n(-c2ccc(CC)cc2)c(=O)n3Cc2ccc(F)cc2Cl)C1 -15.3%, Cc1ccc(-n2ncc3c(NCCCn4ccnc4)ncnc32)cc1C 12.8%, CCOc1ccc2nc(N3CCCC(C(=O)NCCc4ccc(Cl)cc4)C3)sc2c1 (configuration not stated) -14.7%, Nc1nc2[nH]cc(CCc3ccc(C(=O)N[C@@H](CCC(=O)O)C(=O)O)cc3)c2c(=O)[nH]1 -14.2%, CC(C)C(=O)Nc1nnc(S(=O)(=O)N2CCc3ccccc32)s1 -20%, Cc1cccc(N2CCN(c3ccc4cc(S(=O)(=O)N5CCC(C)CC5)ccc4n3)CC2)c1C 2.57%, CCOc1ccc(NC(=O)Cn2nc(Cc3cccnc3)c3ccccc3c2=O)cc1 5.63%, CCOC(=O)c1c(C)oc2ncnc(Nc3cccc(C(F)(F)F)c3)c12 -12.9%, CCc1ccc(NC(=O)CC(NCc2cccnc2)C(=O)O)cc1 (configuration not stated) -16%, O=c1oc2ccccc2cc1-c1cn2cc(Cc3ccc(F)cc3)sc2n1 -0.104%, Cc1ccc(OCC(=O)Nc2ccc(OCc3cc(=O)n4c(C)csc4n3)cc2)cc1C 7.48%, Cc1ccc(Cn2ccnc2SCC(=O)NCc2ccccc2)cc1 -18%, CSc1ccc(CCNC(=O)Cn2nc(C)n3c(cc4sccc43)c2=O)cc1 6.58%, Cc1nc(-c2ccc(Cl)cc2)sc1CCNC(=O)C(=O)Nc1ccc2c(c1)OCO2 -21.7%, CCOC(=O)c1cccc(NC(=O)Cn2ncc3c(=O)oc4ccccc4c32)c1 3.25%, Cn1c(=O)c2c(nc(SCC(=O)Nc3ccccc3F)n2Cc2ccccc2F)n(C)c1=O 8.54%, Cc1ccc(C(=O)c2oc3ccccc3c2NC(=O)COc2ccc(Cl)c(C)c2)cc1 2.07%, COc1cc(C2CC(=O)Nc3cc4c(cc32)OCO4)cc(OC)c1O (configuration not stated) -9.09%
